{"source": "paper PMC4923902", "about": "(Scientific Reports, 2016)", "binders": {"B1": {"name": "arrestin-1 F375 alanine mutant, mCherry fusion (natural protein)", "chain": "not shown", "notes": "bovine arrestin-1 (SAG); single mutant of the alanine scan; also called alanine substitution at site 375; source: E. coli BL21(DE3), cleared cell lysate"}, "B2": {"name": "arrestin-1 F377 alanine mutant, mCherry fusion (natural protein)", "chain": "not shown", "notes": "bovine arrestin-1 (SAG); single mutant of the alanine scan; also called alanine substitution at site 377; source: E. coli BL21(DE3), cleared cell lysate"}, "B3": {"name": "arrestin-1 with truncated C-tail ([…], Δ[…]) (domain or fragment)", "chain": "not shown", "notes": "bovine arrestin-1 (SAG), […]; also called C-tail truncation"}}}
{"biological_target": "T1, phosphorylated opsin (bovine, UniProt P02699 1-348, phosphorylated on the C-terminus by endogenous GRK1 (sites not given); no retinal (apo-protein))", "T1 construct": "bovine opsin (apo-protein of rhodopsin), endogenous in ROS membranes; in isolated, washed ROS disc membranes, not on whole cells; also called Ops-P; OpsP", "assay": "pull-down; centrifugal pull-down in 96-well plates; cleared E. coli lysate with arrestin-mCherry (est. 0.1-0.6 uM) mixed with ROS membranes with Ops-P (1.85 uM), 37 °C 2 min, pelleted at 4 °C; NaCl titrated 4.4-1504 mM as inhibitor; mCherry fluorescence of the washed pellet; IC50 of NaCl from a four-parameter fit; HEPES pH 7.0, hydroxylamine in the lysis buffer", "conditions": "partners not purified", "units": {"fold increase in IC50 of NaCl against wild type": "fold"}}
{"binder": "B1", "fold increase in IC50 of NaCl against wild type": "~2.9"}
{"binder": "B2", "fold increase in IC50 of NaCl against wild type": "~2.9"}
{"binder": "B3", "fold increase in IC50 of NaCl against wild type": 4}
{"biological_target": "T2, phosphorylated Metarhodopsin II (bovine, UniProt P02699 1-348, phosphorylated on the C-terminus by endogenous GRK1 (sites not given); all-trans retinal, Schiff base-linked)", "T2 construct": "bovine rhodopsin, endogenous in ROS membranes; in isolated, washed ROS disc membranes, not on whole cells; also called Meta II-P", "assay": "pull-down; centrifugal pull-down in 96-well plates; cleared E. coli lysate with arrestin-mCherry (est. 0.1-0.6 uM) mixed with ROS membranes with phosphorylated rhodopsin (1.85 uM), 37 °C 2 min, illuminated (Meta II-P), pelleted at 4 °C; NaCl titrated 50-2500 mM as inhibitor; mCherry fluorescence of the washed pellet; IC50 of NaCl from a four-parameter fit; HEPES pH 7.0", "conditions": "partners not purified", "units": {"fold increase in IC50 of NaCl against wild type": "fold"}}
{"binder": "B1", "fold increase in IC50 of NaCl against wild type": "~1.4"}
{"binder": "B2", "fold increase in IC50 of NaCl against wild type": "~1.4"}
{"binder": "B3", "fold increase in IC50 of NaCl against wild type": 1.4}
